Source: PubChem BioAssay AID686979 (National Center for Advancing Translational Sciences (NCATS), 2013)
Values joined by “and” are separate entries in the source; they are usually repeats but may differ in a detail not shown here. Equal values may be shown once. Screen size: about 420,000 compounds; about 50,000 (12%) were called active. The inconclusive results got no clear call from the source; some entries with a clear call stand among them for comparison. Calls come from the whole dose curve; as a rule, active = well fitted inhibition curve with a large enough effect; inconclusive = small, poorly fitted or top-dose-only effect; inactive = flat fitted curve, though single readings scatter. Potencies beside an inconclusive call are fits to weak or partial responses and may not hold up. The source holds several records for some structures; these can differ, active in one and inactive in another.

test: qHTS for Inhibitors of human tyrosyl-DNA phosphodiesterase 1 (TDP1): qHTS in cells in presence of CPT; conditions: chicken DT40 Tdp1-/-;hTDP1 cells + 20 nM CPT, ATP luminescence, 48 h; series mostly up to 46.2 µM; note: nearly all actives have a fitted effect of over 55% in size
Procedure, shortened: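 Chicken DT40 Tdp1-/- cells complemented with human TDP1, 400 cells/well, exposed to compounds plus 20 nM camptothecin for at least 48 h at 37 C; viability read as ATP content by CellTiter-Glo luminescence.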
Potency is the fitted concentration of half-maximal effect; tags give direction and shape of the fitted curve.

| Structure (SMILES) | Potency |
| --- | --- |
| Cc1ccc(C)c(S(=O)(=O)N2CCN(C(=O)[C@@H](NC(=O)c3ccc(F)cc3)C(C)C)CC2)c1 | inconclusive: 8.2 µM [inhibitor, partial curve, poor fit] |
| CCOC(=O)CN1N=C(/C=C/c2ccc(C(C)C)cc2)CCC1=O | inconclusive: 16.4 µM [inhibitor, single point] |
| Cc1cc(-c2ccc(/C=N/n3cnnc3)o2)c([N+](=O)[O-])cc1C | inactive |
| O=C(O)CSC1=NS(=O)(=O)c2ccccc21 | inconclusive: 35.5 µM [inhibitor, single point] |
| COc1cccc(CNc2ccc3nc(-c4ccc(N)cc4)c(OC)n3n2)c1 | inactive and inconclusive: 29.1 µM [inhibitor, single point] |
| Cc1ccc(-n2nc(C(=O)NCc3ccco3)c3c4ccccc4n(C)c3c2=O)cc1 | inconclusive: 29.1 µM [inhibitor, single point] |
| COc1cccc(N2CC(C(=O)N3CCC4(CC3)CC(=O)c3ccccc3O4)CC2=O)c1 (stereo not given) | inconclusive: 20.6 µM [inhibitor, single point] |
| O=C(CCCSc1nnc(-c2cccs2)n1CC1CCCO1)c1ccccc1 (stereo not given) | inconclusive: 29.1 µM [inhibitor, single point] |
| Cc1ccccc1NC(=O)c1sc2nc3n(c(=O)c2c1C)CCC3 | inconclusive: 25.9 µM [inhibitor, single point] |
| Clc1ccc(N=C2SCCS2)cc1 | inactive |
| Cc1ccc(NC(=O)/C(C#N)=C/c2ccc(C)s2)c(C)c1 | inactive |
| Cc1ccc(OCC(=O)OC2=C(C(=O)c3ccccc3)N(C)S(=O)(=O)c3ccccc32)cc1 | inconclusive: 29.1 µM [inhibitor, single point] |
| NC(CCc1ccccc1)c1csc(Nc2ccc(C(F)(F)F)cn2)n1 (stereo not given) | active: 20.6 µM |
| O=C(Nc1ccc2c(c1)Cc1ccccc1-2)c1cc2ccccc2o1 | inconclusive: 25.9 µM [inhibitor, single point] |
| O=S(=O)(Nc1cccc(C(F)(F)F)c1)c1ccc(-c2cnc(C3CC3)o2)cc1 | active: 3.66 µM |
| COc1ccc(Nc2ccc([N+](=O)[O-])cn2)cc1 | inconclusive: 23.1 µM [inhibitor, single point] |
| CCOc1ccccc1C(O)C1=CC(=O)c2ccccc2C1=O (stereo not given) | inconclusive: 14.6 µM [inhibitor, single point] |
| CC(C)C[C@H]1CNC(=S)N1CC1CCN(CCCCc2ccccc2)CC1 | inconclusive: 29.1 µM [inhibitor, single point] |
| CC(C)C(OC(=O)CN1C(=O)COc2ccccc21)C(=O)NC1CCCC1 (stereo not given) | inactive |
| Cc1ccc(C2(COC(=O)C(C)C)CO2)c(OC(=O)C(C)C)c1 (stereo not given) | inactive |
| CCOc1ccc(NC(=O)COc2cccc3cccnc23)cc1S(=O)(=O)N1CCCC1 | inconclusive: 23.1 µM [inhibitor, single point] |
| COc1ccc(/C=C/C(=O)OCC(=O)Nc2ccc3c(c2)OCO3)cc1 | inactive |
| Cc1ccc2sc(N3CCN(CCNC(=O)c4ccco4)CC3)nc2c1C | inconclusive: 16.4 µM [inhibitor, single point] |
| CCCNC(=O)c1c(CSc2ccc(Cl)cc2)noc1C(=O)NCc1ccccc1 | inconclusive: 29.1 µM [inhibitor, single point] |

| Structure (SMILES) | Potency |
| --- | --- |
| CCN(CC)c1ccc(NC(=O)c2ccccc2)cc1S(=O)(=O)Nc1ccccc1OC | inconclusive: 29.1 µM [inhibitor, single point] |
| O=C(COc1ccc2c3c(c(=O)oc2c1)CCCC3)NCCCn1ccnc1 | inactive |
| COc1cc(Cl)c(C)cc1NC(=O)CSc1nnc(-c2ccccn2)n1Cc1ccco1 | inconclusive: 29.1 µM [inhibitor, single point] |
| CC(C)c1ccc(/C=C/C(=O)NCCCc2ccccc2)cc1 | inconclusive: 18.4 µM [inhibitor, single point] |
| O=C(Nc1nnc(-c2ccc(Br)cc2)o1)c1ccco1 | inconclusive: 23.1 µM [inhibitor, single point] |
| COc1ccc(NC(=O)c2nc(C)c(C3(C)CC(c4cccnc4)=NO3)s2)cc1 (stereo not given) | active: 5.8 µM |
| O=C1NC[C@H](CCCCN2CCN(CCC3CCCCC3)C(=O)C2=O)N(CCC2CCCCC2)C1=O | inactive |
| O=C(Nc1ccccc1C(=O)NCc1ccco1)NC1CCCCC1 | inactive |
| O=[N+]([O-])c1cc2oc3c(c2c(C=NCc2ccccc2)c1O)CCCC3 | active: 8.2 µM |
| Cc1c(/C=N/Nc2ccc(F)cc2)c(O)n(C)c(=O)c1C#N | inconclusive: 29.1 µM [inhibitor, single point] |
| CC(C)c1ccc(OCC(=O)Nc2c(C(=O)c3ccc(F)cc3)oc3ccccc23)cc1 | inactive |
| COc1ccccc1C(=O)Nc1ccnn1C1CCN(Cc2cn(C)c3ccccc23)CC1 | inconclusive: 20.6 µM [inhibitor, single point] |
| CCN(Cc1nc2ccccc2c(=O)[nH]1)Cc1cc(=O)oc2cc(C)c(C)cc12 | inconclusive: 32.6 µM [inhibitor, single point] |
| CC(C)N=C1NN=C(c2ccc(Cl)c(Cl)c2)CS1 | inconclusive: 16.4 µM [inhibitor, single point] |
| COc1ccc(CNC(=O)CN(c2ccc(C(C)C)cc2)S(=O)(=O)c2c(C)noc2C)cc1 | inconclusive: 13 µM [inhibitor, partial curve] |
| COc1ccc(S(=O)(=O)c2c(C(=O)c3ccc(C)c(C)c3)cnc3ccc(F)cc23)cc1 | active: 7.31 µM |
| Cc1ccc(NC(=O)c2ccc3c(c2)N(CC(=O)N2CCCCC2)C(=O)C(C)(C)O3)cc1 | inactive |
| CCCCCCn1c(=O)n2n(c1=O)C[C@]1(OC(=O)NCc3ccco3)CN(S(=O)(=O)c3ccc(C)cc3)C[C@]1(O)C2 | inconclusive: 29.1 µM [inhibitor, single point] |
| COc1ccccc1CNC(=O)Cn1ncn2c(cc3sccc32)c1=O | inactive |
| Cc1ccc(Nc2c(-c3ccsc3)nc3c(C)cccn23)cc1 | inconclusive: 20.6 µM [inhibitor, single point] and inconclusive: 35.5 µM [inhibitor, single point] |
| CC(=O)Oc1ccc(Cl)cc1CN(C(C)=O)C1CCCCC1 | active: 23.1 µM |
| O=C(Oc1cccc(C(=S)N2CCOCC2)c1)c1cc([N+](=O)[O-])cc([N+](=O)[O-])c1 | inactive |
| CCN(CC)CCCn1c2c(c(SCC(=O)Nc3ccc(F)c(F)c3)nc1=O)CCC2 | inactive |
| O=C1OCCN1C(=O)[C@H]1[C@H](c2ccc([N+](=O)[O-])cc2)C(c2cccc(Cl)c2)=NN1c1ccc(Br)cc1 | inconclusive: 23.1 µM [inhibitor, single point] |

| Structure (SMILES) | Potency |
| --- | --- |
| CCCCCSc1nc2sc3c(c2c(=O)n1-c1ccc(OC)cc1)CCN(C(C)=O)C3 | inconclusive: 23.1 µM [inhibitor, single point] |
| CC(C)CC(C)c1cc(N)nc2nc3ccccc3n12 (stereo not given) | inconclusive: 29.1 µM [inhibitor, single point] |
| Cc1cccc(-n2cnc3c(sc4nc(N5CCOCC5)c5c(c43)CCCC5)c2=O)c1 | inconclusive: 25.9 µM [inhibitor, single point] |
| COC(=O)C1=C(C)NC(=O)CC1c1ccc(F)c(Br)c1 (stereo not given) | inactive |
| Cc1nc(SCC(=O)N2c3ccccc3NC(=O)CC2C)c2c(C)c(C)sc2n1 (stereo not given) | inconclusive: 16.4 µM [inhibitor, single point] |
| CCOC(=O)c1c(NC(=O)COC(=O)c2ccc(O)cc2)sc(C(=O)N(C)C)c1C | inconclusive: 29.1 µM [inhibitor, single point] |
| Cc1ccc(N/N=C(\Cc2nc3ccccc3[nH]2)c2ccccc2)cc1 | active: 0.82 µM |
| COc1ccc(S(=O)(=O)NCc2cccn2Cc2cccc(C)c2)cc1 | inactive |
| Cn1nc(C(C)(C)C)cc1C(=O)N1CCCCC1c1cc(C(=O)Nc2ccccc2Cl)no1 (stereo not given) | active: 20.6 µM |
| CCC(C)NC(=O)CSc1nnc(-c2ccncc2)n1-c1ccc(OC)cc1 (stereo not given) | inactive |
| CCOC(=O)c1nnn(-c2nonc2-n2cccc2)c1CCl | active: 4.61 µM |
| O=C(C=Cc1ccco1)c1ccc2ccccc2c1 | inconclusive: 29.1 µM [inhibitor, single point] |
| CCC(C)c1ccccc1N1CC(C(=O)Nc2ccc(S(=O)(=O)N3CCOCC3)cc2)CC1=O (stereo not given) | active: 23.1 µM |
| CCOc1cc(C(=O)OCC(=O)c2c(C)[nH]c3ccccc23)ccc1OCC(=O)N1CCOCC1 | inconclusive: 20.6 µM [inhibitor, partial curve] |
| COc1cccc(N2C(=NC(=O)C3CCCO3)SC3CS(=O)(=O)CC32)c1 (stereo not given) | inactive |
| C/C=C/CSc1nc2c(c(=O)[nH]c(=O)n2C)n1Cc1ccc(C)cc1 | inconclusive: 29.1 µM [inhibitor, single point] |
| COc1ccc(OC)c(NC(=O)NCc2ccc(F)cc2)c1 | inactive |
| CC(C)NCC(O)COc1cccc2ccccc12 (stereo not given) | inactive and active: 16.4 µM |
| CCOc1ccc(-c2nc(=S)[nH][nH]2)cc1 | inconclusive: 29.1 µM [inhibitor, single point] |
| CSc1nc(Cl)cc(Nc2ccc(O)cc2)n1 | inconclusive: 25.9 µM [inhibitor, single point] |
| CCCCCn1c(C(Cc2ccccc2)NC(=O)COC)nc2ccccc21 (stereo not given) | active: 18.4 µM |
| C=CC[C@@H](CC(=O)N[C@H](CO)Cc1ccccc1)C(=O)N[C@@H](C)COC(=O)[C@@H](CC=C)CC(=O)OC(C)(C)C | inconclusive: 14.6 µM [inhibitor, partial curve] |
